Assay results taken from PubChem BioAssay AID485344 (National Center for Advancing Translational Sciences (NCATS), 2010).
Screen size: about 340,000 compounds; about 6,900 (2%) were called active. No stated cut-off is given here; in the data, active means inhibition above about 30%; inactive means below that, where a call was filed. Only a part is listed here, and it is no random draw. Entries without a call were filed so in the source.

The compounds below were run against D(2) dopamine receptor (Homo sapiens) (UniProt P14416) (assay: HTS Assay for Allosteric Antagonists of the Human D2 Dopamine Receptor: Primary Screen for Antagonists). Conditions: HEK293 TREx D2 cells, calcium flux, dopamine EC80; at 10 µM; stronger effect = higher value.
Sequence of UniProt P14416 (P14416 whole entry, looked up): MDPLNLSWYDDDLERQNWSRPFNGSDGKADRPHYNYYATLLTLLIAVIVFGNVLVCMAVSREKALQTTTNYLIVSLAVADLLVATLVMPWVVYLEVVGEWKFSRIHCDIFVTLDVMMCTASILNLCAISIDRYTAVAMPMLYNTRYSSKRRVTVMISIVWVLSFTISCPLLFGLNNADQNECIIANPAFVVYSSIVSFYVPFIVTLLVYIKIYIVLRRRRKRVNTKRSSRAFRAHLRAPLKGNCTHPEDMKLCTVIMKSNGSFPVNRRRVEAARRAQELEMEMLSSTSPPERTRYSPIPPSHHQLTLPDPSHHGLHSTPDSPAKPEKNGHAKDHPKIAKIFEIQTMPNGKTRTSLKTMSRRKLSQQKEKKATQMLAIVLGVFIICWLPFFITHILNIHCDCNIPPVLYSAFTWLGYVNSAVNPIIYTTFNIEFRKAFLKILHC
Summary of the method: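 In this primary screen, negative modulation is detected by tracking calcium flux after an EC80 dopamine challenge in inducible HEK293 T-REx D2 cells preexposed to test compound for 180 s.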
Further: 0% is about no effect.

Going from COC(=O)c1sccc1S(=O)(=O)N(CC(=O)Nc1ccccc1F)c1ccccc1 to COc1ccc(S(=O)(=O)N(CC(=O)Nc2cc(Cl)ccc2C)Cc2ccccc2)cc1OC, the inhibition falls from -2.16% to -6.65%.

Compared with CC(=O)c1cccc(NS(=O)(=O)c2cc(-c3cnc(C4CC4)o3)ccc2C)c1, COc1cc(Cl)c(NS(=O)(=O)c2cc(-c3cc(C)no3)ccc2OC)c(OC)c1 is lower in inhibition: -2.02% for the first, -13.3% for the second.

First: CCc1nn(CC(=O)N(C)Cc2ccccc2)c(=O)c2cc3sccc3n12
Second: CCn1nc(C)c2c(-c3ccccc3)cc(=O)n(C(C)C(=O)NCCc3ccc(OC)c(OC)c3)c21 (stereo not drawn)
The inhibition of the first is lower: -19.3% for the first, -0.234% for the second.

Compared with COc1ccc(-n2c(SCC(=O)c3ccccc3)nc3c([nH]c4ccccc43)c2=O)cc1, Cc1ccc(-n2nc(C)c3c(C)cc(=O)n(CC(=O)NC(C)c4ccccc4)c32)cc1 (stereo not drawn) is higher in inhibition: 6.85% for the first, 9.3% for the second.

First: CCOc1ccccc1NC(=O)C1CCN(S(=O)(=O)c2ccc3c(c2)CCCN3C(C)=O)CC1
Second: Cc1ccc(Cl)cc1N1CCN(S(=O)(=O)c2cc(Br)cc3c2N(C(=O)C2CC2)CC3)CC1
The inhibition of the first is higher: 14.3% for the first, 4.59% for the second.

First: CCC(=O)N1c2ccccc2CC1C(=O)NCc1ccc(N(C)C)cc1 (stereo not drawn)
Second: CCc1ccc(C(=O)CC2(O)C(=O)N(Cc3ccc(C)cc3)c3ccccc32)cc1 (stereo not drawn)
The inhibition of the first is higher: 10.5% for the first, 0.239% for the second.

First: CC(=O)c1ccc(NC(=O)c2ccc(-n3cnnc3)cc2)cc1
Second: CC(=O)Nc1ccc(NC(=O)C(Cc2ccccc2)NS(=O)(=O)c2ccc3c(c2)oc(=O)n3C)cc1 (stereo not drawn)
The inhibition of the first is lower: -9.52% for the first, -2.42% for the second.

Going from Cc1ccc(N=C2NC(=O)CC(C(=O)Nc3cc(C(F)(F)F)ccc3Cl)S2)cc1 (stereo not drawn) to CCc1ccccc1NC(=O)c1cc2nc(-c3ccc(Br)cc3)cc(C(F)(F)F)n2n1, the inhibition rises from -13.1% to -7.49%.

Compared with O=S(=O)(c1ccc(Cl)cc1)c1nnn2c1nc(NCc1ccc3c(c1)OCO3)c1sccc12, COc1ccc(NCc2cc3cc4c(cc3n(CC(=O)Nc3ccc(C)c(C)c3)c2=O)OCO4)cc1 is higher in inhibition: -17.1% for the first, 10.1% for the second.

Going from CCOc1ccc(S(=O)(=O)Nc2cc3c(C(=O)OC)c(COC)oc3c3ccccc23)cc1 to CCOc1ccc(NC(=O)CSc2c3c(nc4ccccc24)CCCC3)cc1, the inhibition falls from 12% to 7.97%.

First: CCOc1cc(-c2ccc(OC(=O)c3ccc(OC)cc3)c(OC)c2)cc(=O)c2c(C)oc(C)c12
Second: CCOC(=O)c1cc(-c2ccc(F)cc2)n(CCC(=O)Nc2nc3ccc(OC)cc3s2)c1C
The inhibition of the first is higher: -10.1% for the first, -22.1% for the second.

Going from CCOC(=O)CC(NC(=O)CCc1c(C)nc2c(c1C)c(=O)n(C)c(=O)n2C)c1ccc(OCC)c(OC)c1 (stereo not drawn) to COc1ccc(N2CCN(Cc3nc4c(c(=O)n(C)c(=O)n4C)n3C(C)C)CC2)cc1, the inhibition falls from 10.9% to 6.12%.

Going from CC(C)c1ccc(NS(=O)(=O)c2ccc3[nH]cc(C(=O)NCCc4ccccc4)c(=O)c3c2)cc1 to Cn1c(=O)oc2cc(S(=O)(=O)CCC(=O)NCCc3ccc(Cl)cc3)ccc21, the inhibition rises from -15.5% to 11.4%.

First: COc1ccc(-c2nn(-c3ccccc3)cc2C2NC(=O)NC(C)=C2C(=O)OC(C)C)cc1Cl (stereo not drawn)
Second: CC(C)OCCCN1C(=O)c2[nH]nc(-c3ccccc3O)c2C1c1ccccc1F (stereo not drawn)
The inhibition of the first is higher: 18.3% for the first, -1.82% for the second.

Going from CC(C)(C)OC(=O)N1CCC(c2c(C(=O)N3CCCCC3)cnn2-c2ccccc2Cl)CC1 to CC(C)(C)c1ccc(C(=O)N2CCCC(c3nc4c(nnn4Cc4cccc(F)c4)c(=O)[nH]3)C2)cc1 (stereo not drawn), the inhibition falls from 9.8% to 3.1%.

First: COc1ccccc1OCc1nc(C#N)c(NCc2ccc(C)cc2)o1
Second: Cc1ccc(-c2cn3nc(N4CCCC(C(=O)NCc5ccc(F)cc5)C4)sc3n2)cc1 (stereo not drawn)
The inhibition of the first is higher: 7.93% for the first, -7.07% for the second.

Compared with Cn1c(=O)c2sccc2n2c(CCCC(=O)NC3CCCCC3)nnc12, CCCCOc1ccccc1C(=O)N(Cc1sccc1C)C1CCS(=O)(=O)C1 (stereo not drawn) is lower in inhibition: -5.13% for the first, -8.52% for the second.

Going from Cc1cc(C)cc(NC(=O)Cn2c(=O)n(-c3ccc(C)c(C)c3)c(=O)c3oc4ccccc4c32)c1 to COc1ccc2cc(CNc3ccc(C)cc3)c(=O)n(CC(=O)Nc3ccc(C)cc3Cl)c2c1, the inhibition falls from -3.25% to -4.98%.

Compared with Cc1ccc2nc(CN3CCN(S(=O)(=O)c4ccc(C(C)C)cc4)CC3)oc2c1, CC(C)c1nc2ccc(C(=O)NCc3ccccc3Br)cc2o1 is higher in inhibition: 4.87% for the first, 9.35% for the second.

First: CN(C)CCCn1c(-c2ccc(Cl)cc2)csc1=Nc1ccccc1
Second: CCN1CCSc2ccc(C(=O)NCc3cccc(Br)c3)cc21
The inhibition of the first is higher: 12.4% for the first, -1.67% for the second.

Compared with COC(=O)c1ccc(NC(=O)CCn2cnnn2)c(C)c1, Cc1cccc(OCc2cc(=O)n3c4c(sc3n2)CCCC4)c1C is higher in inhibition: 10.4% for the first, 23.5% for the second.

COc1ccc(CNC(=O)c2sc3nc[nH]c(=O)c3c2C)cc1 gave an inhibition of 8.92%.

With CCc1nn(C(CC)C(=O)NCCCN2CC(C)CC(C)C2)c(=O)c2cc3oc(C)cc3n12 (stereo not drawn) the inhibition was active: 63.7%.
In the case of COc1ccc(Cl)cc1NC(=O)NCC1CCN(Cc2cc(C)ccc2C)CC1, the inhibition was active: 54.6%.
With COc1ccc2nc(SC)c(C#N)cc2c1 the inhibition was active: 55%.
For COc1ccc(CN2CCC(CO)(Cc3ccccc3C(F)(F)F)CC2)c(F)c1, the inhibition was active: 43.2%.
COc1ccc(S(=O)(=O)NCC2CCCO2)cc1NC(=O)c1ccccc1F (stereo not drawn) was tested, and the inhibition was active: 35.6%.
